This is one part of the list. At the low end of the ranking the order means little.
Target: T1, GST-Rok-C97-191 (UniProt O34857)
T1 sequence: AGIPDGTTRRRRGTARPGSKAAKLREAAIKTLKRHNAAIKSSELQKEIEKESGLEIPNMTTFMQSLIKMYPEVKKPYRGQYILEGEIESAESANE
Assay: protein binding microarray;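 note: rank score from −0.5 (least bound) to 0.5 (best bound)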
Conditions: Rok is a gene silencer of Bacillus subtilis; high values mean tight binding; most listed sequences are background and not binding sites; double strand, one strand shown

Sequence	binding signal [E-score]
CTATGATA	0.209
AGATAAGC	0.238
GCCTCAAA	-0.134
GTATTATA	0.388
ACAATCGC	0.0137
AGCGCACG	-0.161
AAAGGACC	-0.323
CAAAGCCC	-0.186
ACCGAGGT	-0.137
AGGAACAC	-0.177
CCTTCTTA	0.0486
GCCTTGCA	-0.175
CCAGGCAG	-0.281
CAAGGCCG	-0.175
GCAGAATA	0.015
ACCTAACA	-0.0427
CACACTGA	-0.208
ACATTGGG	0.0736
TGATCACA	-0.0398
ACTTGTGG	-0.109
ATTGGCCC	-0.217
AGGTTCCG	-0.0655
ACTCAGAC	-0.0417
GTAGACGA	0.033
ACTACACG	0.186

Sequence	binding signal [E-score]
AGGCATGA	-0.117
GAATGTAA	0.173
CTGAACGC	-0.149
AAACTCAG	0.0837
CTAAACAA	-0.137
CATCGACA	0.122
AGGGTGAG	-0.238
CTGCACTC	-0.137
CACGGCAA	0.0436
CTACGGAA	0.183
CAAGGTCC	-0.223
CCTTGGCA	-0.346
TAATTTCA	0.318
AATAGGCG	-0.135
AGCGATTC	-0.0588
AAGTTCGC	0.0383
GCAAGTGA	0.0852
CTGTTCCC	-0.222
CTAGACAC	0.00927
CTAAACTA	0.386
ACTGAGGG	-0.132
AGTTTCAA	0.104
GAAACGCC	-0.103
ATATTTAA	0.338
AAAAAACA	0.19

Sequence	binding signal [E-score]
AAAGATGT	-0.0898
GTATGAAA	0.0513
CCATAGGC	-0.199
CACCATTA	0.0781
AACCTATG	-0.0266
CCGGACAA	-0.145
GAGCACAA	-0.0601
GCTAACAC	-0.0971
AATTAACG	0.167
AAGTCTGA	-0.046
AGATGGGG	-0.112
GACCTCCC	-0.206
CAGCGGTC	-0.314
ATGGTGAA	0.0706
CGAATTCC	-0.0979
ATTCCCAA	0.0599
AGGGGCAA	-0.224
GAGAGGCC	-0.269
CGGAGGAC	-0.262
CAGCGCAA	0.0298
GTCTGCTA	-0.00452
AGGTGTTC	-0.0999
CCGCCGTA	-0.127
CGTGGGAG	-0.259
GTGCAAAC	-0.0469

Sequence	binding signal [E-score]
CAAGACAC	-0.287
CCTATACG	-0.0365
TATGCCGA	-0.0394
CATGAGTA	0.155
CGTTATCC	-0.0591
GATCTCAC	-0.0111
TGGGGTAA	0.0549
ATGAGCGA	-0.156
CATGCGCC	-0.338
AGTACCGG	0.129
ATCATCTC	-0.184
AAAATCGG	-0.095
CTATGTGA	0.125
CAGCCAGC	-0.201
CCCTCGAG	-0.186
CGCGTAAG	-0.117
CATTGTCC	-0.279
GCTCCTTA	-0.0834
CGTAGGCC	-0.0817
GGGGTGTA	-0.0373
CTCGAATA	0.0526
CAAGTGGC	0.000617
CAGTGCGA	-0.227
GATTTGCA	0.0398
TAGTAAGA	0.284

Sequence	binding signal [E-score]
AGGTACTA	0.229
AGGTAATC	-0.194
ATTGGATG	0.056
GTATGTGA	0.184
ACAGTACA	0.0766
ACCTCCGC	-0.159
GGCGTCCA	-0.17
AATTATAG	0.303
AAACAGGT	-0.064
ATAGACGC	-0.0442
CCATGGCC	-0.119
AGCGCTTG	-0.0354
ACACCCCG	-0.143
TACGTCTA	0.116
ACCTAGCC	-0.14
CGAATCTA	0.256
GATATCGC	0.201
CTGCTAGA	0.0982
GACTATCA	-0.147
AGCAACTC	0.138
CTAACTGA	0.0665
ACAGTAGA	0.364
AACATCCA	0.176
CAACGCGC	-0.0959
GTCTACAA	-0.0759

Sequence	binding signal [E-score]
GAGCCGGC	-0.272
GGTGGTGA	-0.135
GAGTCCCC	-0.343
CTGCGGTC	-0.246
ACACAGAA	0.154
AAAGCCCG	-0.187
AACCGCAT	0.0225
CGATGGAG	-0.0357
CTGTTATA	0.287
AGTACTAG	0.334
AAGGCCCG	-0.344
AGGTTTTC	0.0532
ATCTGATG	0.175
TGTATTAA	0.294
ATGGGTGC	-0.0815
AAGTATAA	0.187
ATTGGTCA	0.111
ATGTGTAG	0.186
AACTCTCC	-0.134
CCCCTAAC	-0.284
AAGGTACC	0.184
CGCCAATA	-0.084
ACCTCAAA	0.0059
AGGCTTCC	-0.222
AGTTGAGC	-0.00213

Sequence	binding signal [E-score]
TCTTCCCA	-0.0301
CCGCCCTC	-0.366
ATTAAGGA	-0.113
CTGTTTCA	-0.0409
ATGCGAAG	0.124
AATCCTAA	0.0587
GTCACGCA	-0.0829
AAGCAGTC	-0.0777
AGCGAAAA	0.211
CCAGCTAA	0.058
AGGGGCCC	-0.406
CGGGAATC	-0.231
AGATGTTA	0.107
GGCGCCAC	-0.253
CATCGACG	-0.111
ATTCAGCA	0.19
CGCTCTCC	-0.284
GCCTTTTA	-0.0356
ATCATCGG	-0.0327
ACGGCTTC	-0.108
GCCTAATA	0.0461
GCAATTTA	0.257
CCCCTCGA	-0.219
ATTTAGAG	-0.0563
CTGCGGCA	-0.256

Sequence	binding signal [E-score]
GTATTCAA	0.0723
AAAGTAGC	0.261
CCAGTGTA	0.0845
ACGGTTAA	-0.0663
CTGGAGGA	-0.0909
GGAATGAC	-0.0142
CTTTCTGA	-0.131
CCGGATAG	-0.168
AGTCGTCC	-0.0543
CGAGCCAC	-0.19
AGACCAAC	-0.229
CGTCCGCC	-0.271
GCCGAAAA	0.0932
AGAACTCG	-0.145
CGGAGGTA	-0.0536
GCTGCGCC	-0.0516
AGTAGGTG	0.127
CCGCCGAG	0.0964
TCATCGAA	-0.0838
AAATCTCG	0.146
CGCATCAC	-0.154
AGATTGGG	-0.00462
CTGTTCCA	-0.161
AGGACAAG	0.0165
CTTACGGC	-0.196

Sequence	binding signal [E-score]
AGAGCACT	-0.254
CGCCATAG	-0.17
CGTCACTC	-0.0148
AACGCTAT	0.0771
GCTCGCCA	-0.157
AAAAGCCG	0.0236
GATTAGAC	0.0246
ACATAGTG	0.0308
GTTGAATA	0.173
GCGACACA	-0.0711
AGACAGAG	-0.118
AGGGAACT	-0.0487
GTGCTCTA	-0.182
GACGACCC	-0.143
CCTCAATA	0.064
CTATGAGA	0.0366
AACTTCCT	-0.151
AACAGATT	-0.0624
CGGCCAAA	-0.0805
GTAATGCA	0.083
CCTTCATA	0.0461
AGTAGCCC	-0.169
TACCACCA	0.196
ACAATCCA	0.0177
AGCGCCCC	-0.198

Sequence	binding signal [E-score]
GCGGTCCC	-0.244
CTTTAGCA	-0.0326
GTCTCTCA	-0.13
GCGCCTCA	-0.369
AGTTTTAA	0.0365
CTCTTACA	-0.034
AGCCCTAC	-0.0154
CGCGTTAC	-0.0817
GCATCTGA	-0.0514
ACTTAAAC	-0.0216
CCCGCTAG	-0.117
TAAAGGTA	0.167
ACCTCCGT	-0.238
TTCTTCAA	-0.0566
CGACAGGA	-0.321
GGAAGAAA	0.124
ACGAGAGC	-0.131
CCCAAGCC	-0.216
ACTTGGTC	-0.0788
ACACCACC	-0.0215
CCTATGCA	-0.106
CTCGACCA	-0.0351
AATCAAGG	0.0133
ACGCAAAT	-0.00499
TCCAAAAA	0.0483

Sequence	binding signal [E-score]
CCCGCGCG	-0.274
CGCAACGA	-0.106
AGATAACG	0.196
CTTGAACC	-0.194
TAAGTAGA	0.317
GGGAGGTA	0.048
ATACTGGG	0.157
CTTTTATC	0.0697
GCGGTCCA	-0.138
AAGGCCAT	-0.215
GAAAGATC	0.0102
ATGGCCAT	0.151
TAACCGTA	0.169
AAGGCGAC	-0.238
AACTACGG	0.19
AGATCAAA	0.00988
CAAGACTA	0.186
ACATGAAA	0.118
GATAACTA	0.29
CTGTATTA	0.261
TGATGAAA	0.105
GGTGACCA	-0.136
CTAGGTCC	-0.126
ATTTAAGG	0.0954
ACAGTATC	0.163

Sequence	binding signal [E-score]
AATCTCTC	0.0357
AACGCTCC	-0.0965
CATGTTAC	0.15
ACCACAAA	0.0876
CTTGACCC	-0.314
ACCATTAC	0.268
CCGGTATA	0.117
CGCATCGC	-0.099
AGGCCCCA	-0.193
GCTGATGA	0.00557
ATGTCGTG	0.00732
CAAAGGGA	-0.294
AAGCGGCG	-0.351
ACACGCCA	-0.111
CCGAGCGG	-0.183
AAGAAAGT	0.236
ACAAGATG	0.0122
GAGGGCCA	-0.231
TGAGGTAA	0.126
TAACGCGA	0.00679
GGAAACCA	-0.105
ATGCAATG	0.0885
GCAAAACA	-0.0122
CATGAGGG	-0.283
CTGAAAAA	-0.0833

Sequence	binding signal [E-score]
ACGTTGTC	-0.0888
ATCAGACA	0.00352
CTCAATTA	0.037
CTGCGGGA	-0.268
AAAGCACT	-0.0789
AGCACTTC	-0.113
CATGCGAC	-0.132
CCCCCTCC	-0.428
AAAAATCC	0.06
AGAGGGCT	-0.21
CATCCTGG	-0.0651
AAGAATGT	0.101
TGAGCACA	-0.269
GGAGGTTA	-0.0839
CATGCATC	-0.0333
ACAAGGCA	-0.136
CTGGCTTC	-0.157
GCAGCAAA	-0.119
ACCCTTAC	-0.106
AAATCGAA	0.224
AGGTTGCC	-0.157
AACCACGT	0.129
AGGTCCTG	-0.0134
ACCCATAA	0.201
CAAATGCG	0.0371

Sequence	binding signal [E-score]
GTTGCATA	-0.00101
CACCATCG	-0.112
AGGAGACC	-0.161
ACGTGAAC	0.0345
GCAATCTA	0.307
GCCGGTCA	-0.0374
CCGCGTCG	-0.056
AACCCCGA	-0.174
ATACGAAA	0.0585
ACCTATCA	0.0914
ACTAAAAC	0.26
CAGTGTAA	0.000763
ATATAATG	0.3
ACTATTCC	0.137
CTACCCAG	0.15
AGAAAAGA	0.244
CAGCATCC	-0.0907
ACATGCAA	0.163
CGATTTAA	0.0832

Source: paper PMC6212790
